Assay results: the supplement of paper PMC3334620
Whole data set: some 33,000 sequences, median “E-score (-0.5 to 0.5)” near -0.011, cut for the highest 2% near 0.28. This is one part of the list.

target: T1, Gcr1 (UniProt P07261); test: PBM E-score (8-mer binding enrichment) (E-score (-0.5 to 0.5)); higher = stronger / more preferred TF binding; most listed sequences are background and not binding sites; details: protein concentration: 100 nM; construct: GST-full length
T1 sequence: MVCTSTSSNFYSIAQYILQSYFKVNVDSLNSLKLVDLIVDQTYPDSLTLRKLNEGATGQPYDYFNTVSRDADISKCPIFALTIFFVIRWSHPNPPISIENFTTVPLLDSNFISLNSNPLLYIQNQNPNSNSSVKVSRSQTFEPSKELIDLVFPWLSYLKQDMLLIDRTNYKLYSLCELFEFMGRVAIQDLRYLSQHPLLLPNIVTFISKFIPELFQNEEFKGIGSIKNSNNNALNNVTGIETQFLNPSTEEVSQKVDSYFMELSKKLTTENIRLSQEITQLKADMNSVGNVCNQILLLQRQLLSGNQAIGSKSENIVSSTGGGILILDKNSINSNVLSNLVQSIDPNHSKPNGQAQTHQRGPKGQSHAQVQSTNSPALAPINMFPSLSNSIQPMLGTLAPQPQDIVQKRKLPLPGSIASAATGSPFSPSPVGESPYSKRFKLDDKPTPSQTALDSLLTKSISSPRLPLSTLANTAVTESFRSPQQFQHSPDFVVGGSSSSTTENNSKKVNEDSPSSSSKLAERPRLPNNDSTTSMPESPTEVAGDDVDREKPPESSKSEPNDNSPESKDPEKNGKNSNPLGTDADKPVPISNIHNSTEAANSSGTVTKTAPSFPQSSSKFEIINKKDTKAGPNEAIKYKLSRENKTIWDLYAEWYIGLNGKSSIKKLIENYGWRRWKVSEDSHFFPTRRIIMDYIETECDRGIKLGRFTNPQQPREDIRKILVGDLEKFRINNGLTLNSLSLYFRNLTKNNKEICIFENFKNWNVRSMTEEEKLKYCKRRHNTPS
Protocol: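 Universal 'all 10-mer' protein binding microarrays (Agilent AMADID 015681) probed with GST-tagged S. cerevisiae TFs (full-length or DBD) made by in vitro transcription/translation (PURExpress), about 100-200 nM. Bound TF was detected with fluorescent anti-GST. Each ungapped 8-mer (which stands for itself and its reverse complement) is scored by the PBM enrichment score (E-score), a modified Wilcoxon-Mann-Whitney statistic from -0.5 to +0.5, computed with the Universal PBM Analysis Suite. Scale: above 0.35 generally sequence-specific binding.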

Sequence | PBM E-score
AGCACCGC | -0.0299
AATCAAGG | -0.0103
CTAGCAGA | -0.199
CCCAAGTA | 0.0271
CCCGGCAC | -0.0516
GTACGCAA | -0.126
CTGAGGGA | -0.211
GCAGTTTA | 0.0599
GTCAAGAA | 0.0018
ATTGTGAC | 0.0102
ATTTAAAA | 0.115
AGAGTCTA | -0.0227
CGCACACG | -0.00991
GGGACCTA | 0.0741
CGCTTTGC | -0.0972
GTCTTCTA | -0.0212
CACACGCC | 0.029
CTAATTCC | 0.134
AGTCACGG | -0.224
AGGCGCAT | 0.0287
ATCGAGAA | 0.178
CACCTAAA | 0.266
AAGCAGTA | 0.00562
GCGTAGCC | -0.123
CATGGTCA | -0.159

Sequence | PBM E-score
CGAGATCC | -0.00997
ACAAGCTG | 0.106
AGGAGGTG | -0.0889
CAAGCGCG | -0.0724
GGCTAATA | 0.0287
AGAAAGGG | -0.0747
AGACTTGC | -0.18
CGGATCCC | 0.341
ACGCGTCC | 0.292
AGCATTTA | 0.151
CTGGCAGC | 0.386
CTGGCCGA | -0.156
ACAATGGC | -0.103
GTACTGAA | -0.0112
ACCGCCAT | -0.181
AAGCCCAC | 0.0131
CTTCGCCA | -0.0437
CAATCATC | -0.0981
GCGAGACA | -0.115
AGTTCTGG | 0.0689
CAATCATG | -0.0813
ACCATGCA | 0.146
GATTCGCA | 0.267
CCTAAGGC | -0.124
GACCCGAA | 0.0929

Sequence | PBM E-score
GATAGGCC | -0.131
GATTACCC | -0.306
CAAAATCG | -0.0703
ACGTCCCG | 0.0111
CAGCAGAG | 0.0348
AAGCGTCC | 0.323
AGATATGC | -0.127
CTTTACAC | 0.122
GCTGGCCC | -0.178
ATAACTCC | -0.0323
AAATCCTC | -0.28
TCGTTGAA | -0.127
ACTTGTGC | -0.114
CAAAGAGA | -0.055
AAAAGTCA | -0.058
CGCTAAAG | -0.0429
AAGGTACA | 0.0281
ATATTCCA | 0.17
CATCCCAG | -0.0404
ATGGTCAA | -0.115
CGCAGACA | -0.0735
CATAGTGA | -0.135
GGATGCCC | 0.464
ACCGAGCT | -0.0772
CTAGGTAC | -0.0583

Sequence | PBM E-score
CATATACA | 0.0529
GCGCTGAC | -0.0643
CTATTTTC | 0.052
CGAGGAAA | 0.0716
ATGACGGC | 0.0302
CTGCACCC | 0.0757
ACGATTGC | -0.0169
ACTTAATC | -0.026
GTCAGTCA | 0.0683
CTGTATAC | 0.0309
GTCACCTA | -0.00909
AGCCTAGG | -0.254
ACCTTAAA | 0.156
AATTCGGT | 0.177
AGGTTTTC | 0.0618
ACAGATAC | 0.0779
GTACAGCA | -0.0358
ATACACAT | 0.1
GGCATCAC | -0.0242
GGTATCAC | -0.165
ATCGGTCA | -0.247
CATTATCG | 0.0454
CTGGTGAA | -0.0514
ACGGAACC | 0.0697
CTACGTAC | 0.0519

Sequence | PBM E-score
ACAAGGAT | 0.00092
GAATAATA | 0.185
GACGGTTA | -0.0821
CCGCTATC | 0.131
CTCTGCAC | -0.0576
AATACGCC | -0.0501
AAAGCACT | -0.195
GGATTTGA | -0.111
CGTCCCCA | 0.109
CCTATACA | 0.198
CCATCGCC | -0.0991
CACGGTGC | 0.131
ACGGGGGA | -0.063
ACGACCCG | -0.115
GGGAATAA | 0.147
ATAAAAAG | 0.128
AAAGCGAC | 0.0124
ATCGCATG | -0.36
GCGAGCGA | 0.0461
ACCCTCAG | -0.0384
AATGTGGC | 0.13
AAGATACT | 0.158
AATAGATT | 0.0676
CGATTAAG | 0.0904
CACCCTAG | 0.0455

Sequence | PBM E-score
ACGACAGC | -0.112
CGTATAAG | 0.147
ATCTGACG | -0.243
ATAATGTG | 0.194
ACAGTTAA | -0.045
ACGCCCTA | 0.178
AGCCGTGA | 0.11
AGTTGCGG | 0.177
GAAAACAC | -0.0836
AGTCAACG | -0.158
AGTTAATC | 0.0377
ATGGAACG | -0.0103
CTTAGTAC | 0.019
AGAGGTGA | -0.044
ATCCAGAC | 0.0146
GCACCAAA | 0.201
GTAAACTA | 0.0139
GCCGCTCA | 0.0602
GCACCAGC | 0.0635
CGGCCCTA | -0.253
CCAAGTTC | 0.12
GTGTTCCA | 0.112
ATTAGGAC | 0.104
TCTTACAA | -0.0892
GTTAATCA | 0.0578

Sequence | PBM E-score
ACGGGAGG | -0.0387
CAACGAAA | 0.0915
GCCCGGGA | 0.129
CCCCGCGC | 0.022
CTATGGGC | -0.0362
ATCGGCAC | 0.0146
ACCACCCT | -0.114
AACACTTC | -0.0457
CTCCCACA | 0.201
GCTTGTCA | -0.19
ACACGGGA | -0.151
AACCGACA | -0.00674
CAATTTGG | 0.222
CGTACCGC | -0.162
AAATGGAG | 0.016
GGCCTTCA | 0.00737
CACGTATG | -0.182
CGGAATCA | 0.0684
CAGGCAAC | -0.076
CATAACTC | 0.0172
AATATACG | 0.257
GCAATAAA | 0.206
